Results reported in PMC7735600.
These are yes or no findings as the source states them, for the method shown. Binding seen in cells or lysates may run through a third protein. Some binding calls cover weakened binding; strength is not graded here. For some of these results: Tags and fused reporters may be left off the sequences shown.

Sequences of proteins named here, by UniProt entry; tags and fusion partners are left off.
UniProt F5HDE4: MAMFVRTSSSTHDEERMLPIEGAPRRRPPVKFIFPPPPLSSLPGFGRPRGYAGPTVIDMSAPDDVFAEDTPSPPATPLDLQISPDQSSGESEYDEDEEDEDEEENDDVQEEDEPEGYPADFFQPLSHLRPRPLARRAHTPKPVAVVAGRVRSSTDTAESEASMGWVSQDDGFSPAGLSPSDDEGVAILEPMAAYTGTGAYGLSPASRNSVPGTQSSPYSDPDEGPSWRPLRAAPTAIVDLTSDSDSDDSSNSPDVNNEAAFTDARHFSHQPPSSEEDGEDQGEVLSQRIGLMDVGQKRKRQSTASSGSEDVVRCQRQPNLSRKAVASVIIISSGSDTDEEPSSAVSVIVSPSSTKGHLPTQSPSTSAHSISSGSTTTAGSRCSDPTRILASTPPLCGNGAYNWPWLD
UniProt Q7L804: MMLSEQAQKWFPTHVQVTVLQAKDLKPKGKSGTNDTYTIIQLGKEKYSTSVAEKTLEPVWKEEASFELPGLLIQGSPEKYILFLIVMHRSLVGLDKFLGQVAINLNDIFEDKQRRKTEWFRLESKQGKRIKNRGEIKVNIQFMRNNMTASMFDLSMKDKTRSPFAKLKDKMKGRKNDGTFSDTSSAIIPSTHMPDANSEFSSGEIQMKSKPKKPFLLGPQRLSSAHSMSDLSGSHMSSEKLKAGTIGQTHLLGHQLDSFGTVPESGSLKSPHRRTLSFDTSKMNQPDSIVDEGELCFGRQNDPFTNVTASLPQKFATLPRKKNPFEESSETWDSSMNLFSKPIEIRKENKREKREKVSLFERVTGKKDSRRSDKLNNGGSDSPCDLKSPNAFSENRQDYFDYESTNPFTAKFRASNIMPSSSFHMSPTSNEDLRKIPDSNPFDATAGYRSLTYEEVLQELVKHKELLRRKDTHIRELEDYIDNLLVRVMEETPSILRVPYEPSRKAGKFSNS

Assays:
[1] = target: Flag-tagged ORF45 (KSHV open reading frame 45), full length (Kaposi's sarcoma-associated herpesvirus (KSHV), BAC16) (UniProt F5HDE4); experiment: co-IP; HEK293T cells cotransfected with a Flag-tagged and an HA-tagged protein; lysed on ice in RIPA buffer; immunoprecipitated with an anti-Flag antibody; western blotting
[2] = target: Flag-tagged RAB11FIP5 truncation mutant 1–490 (human) (UniProt Q9BXF6); experiment: as above
[3] = target: Flag-tagged C2 region deletion mutant of RAB11FIP5 (Δ16–127) (human) (UniProt Q9BXF6); experiment: as above
[4] = target: Flag-tagged RAB11FIP5 truncation mutant 16–127 (C2 domain) (human) (UniProt Q9BXF6); experiment: as above
[5] = target: T1, Flag-tagged RAB11FIP5, full length (human) (UniProt Q9BXF6); experiment: as above
T1 sequence: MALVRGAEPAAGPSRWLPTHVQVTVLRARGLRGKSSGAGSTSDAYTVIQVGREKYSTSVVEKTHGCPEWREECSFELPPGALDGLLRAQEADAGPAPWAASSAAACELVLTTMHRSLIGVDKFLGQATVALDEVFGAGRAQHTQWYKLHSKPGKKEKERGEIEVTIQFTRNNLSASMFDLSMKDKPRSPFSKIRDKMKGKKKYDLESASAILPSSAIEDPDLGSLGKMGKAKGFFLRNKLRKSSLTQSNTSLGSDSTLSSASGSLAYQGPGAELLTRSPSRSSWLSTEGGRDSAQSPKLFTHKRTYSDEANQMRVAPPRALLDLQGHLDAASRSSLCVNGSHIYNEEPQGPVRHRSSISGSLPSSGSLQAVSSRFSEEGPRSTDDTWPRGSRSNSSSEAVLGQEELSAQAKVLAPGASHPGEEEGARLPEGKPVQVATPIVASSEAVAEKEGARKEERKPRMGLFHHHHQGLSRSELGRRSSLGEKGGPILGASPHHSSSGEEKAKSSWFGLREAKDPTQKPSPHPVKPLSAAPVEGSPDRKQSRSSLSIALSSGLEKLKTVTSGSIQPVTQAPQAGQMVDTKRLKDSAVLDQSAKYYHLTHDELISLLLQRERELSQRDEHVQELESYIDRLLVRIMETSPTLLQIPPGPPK

[6] = target: endogenous ORF45 of KSHV-infected cells (KSHV (endogenous in iSLK.RGB and BCBL1)) (UniProt F5HDE4); experiment: co-IP; endogenous proteins; iSLK.RGB cells induced by dox or BCBL1 cells treated with VPA for 24 h; lysates immunoprecipitated with anti-ORF45 or mouse IgG control antibody; western blotting

Molecule: HA-RAB11FIP2 (from UniProt Q7L804 1-512)
- binding [1]: no binding

Molecule: HA-tagged ORF45 (KSHV), full length (from UniProt F5HDE4 1-407)
- binding [2]: binds
- binding [3]: no binding
- binding [4]: binds
- binding [5]: binds

B1: HA-tagged RAB11 family interacting protein 5 (RAB11FIP5), full length (protein, UniProt Q9BXF6 1-653)
chain: T1 sequence
- binding [1]: binds

B2: endogenous RAB11FIP5 (protein, UniProt Q9BXF6 1-653)
chain: T1 sequence
- binding [6]: binds

B3: HA-RAB11FIP1 (protein, UniProt Q6WKZ4 1-1283)
chain: MSLMVSAGRGLGAVWSPTHVQVTVLQARGLRAKGPGGTSDAYAVIQVGKEKYATSVSERSLGAPVWREEATFELPSLLSSGPAAAATLQLTVLHRALLGLDKFLGRAEVDLRDLHRDQGRRKTQWYKLKSKPGKKDKERGEIEVDIQFMRNNMTASMFDLSMKDKSRNPFGKLKDKIKGKNKDSGSDTASAIIPSTTPSVDSDDESVVKDKKKKSKIKTLLSKSNLQKTPLSQSMSVLPTSKPEKVLLRPGDFQSQWDEDDNEDESSSASDVMSHKRTASTDLKQLNQVNFTLPKKEGLSFLGGLRSKNDVLSRSNVCINGNHVYLEQPEAKGEIKDSSPSSSPSPKGFRKKHLFSSTENLAAGSWKEPAEGGGLSSDRQLSESSTKDSLKSMTLPSYRPAPLVSGDLRENMAPANSEATKEAKESKKPESRRSSLLSLMTGKKDVAKGSEGENPLTVPGREKEGMLMGVKPGEDASGPAEDLVRRSEKDTAAVVSRQGSSLNLFEDVQITEPEAEPESKSEPRPPISSPRAPQTRAVKPRLEVSPEAQPTARLPSPTDSPSSLPPLPSSSGQASVPSELGHGADTQSSESPSVFSSLSSPIAAPISTSTPIESWPLVDRGQAKSEGPPLLPKAELQTESLTPVPNSGSSALGSLFKQPSFPANKGTEDSLMGRTRETGTEKNTSSLELEESLPEQPETGRQEEELPRFPCKKQDYSPSSGEAQEVPFALSLSSDGAVSPVGELAAGGDRDLESQAGSLVESKARDAAEEVAPPLPMGASVPSIDSMMRKLEEMGLNLRKDQKKTKKRVSFSEQLFTEEAVAGAALLVEGHSSCPQELNPAWSVAGNASDGEPPESPHAEDSERESVTTPGPATCGAPASPADHLLLPSQEESFSEVPMSEASSAKDTPLFRMEGEDALVTQYQSKASDHEGLLSDPLSDLQLVSDFKSPIMADLNLSLPSIPEVASDDERIDQVEDDGDQVEDDGETAKSSTLDIGALSLGLVVPCPERGKGPSGEADRLVLGEGLCDFRLQAPQASVTAPSEQTTEFGIHKPHLGKSSSLDKQLPGPSGGEEEKPMGNGSPSPPPGTSLDNPVPSPSPSEIFPVTHSFPSSAHSDTHHTSTAESQKKATAEGSAGRVENFGKRKPLLQAWVSPSETHPVSAQPGAGTGSAKHRLHPVKPMNAMATKVANCSLGTATIISENLNNEVMMKKYSPSDPAFAYAQLTHDELIQLVLKQKETISKKEFQVRELEDYIDNLLVRVMEETPNILRIPTQVGKKAGKM
- binding [1]: no binding

B4: HA-RAB11FIP3 (protein, UniProt O75154 1-756)
chain: MASAPPASPPGSEPPGPDPEPGGPDGPGAAQLAPGPAELRLGAPVGGPDPQSPGLDEPAPGAAADGGARWSAGPAPGLEGGPRDPGPSAPPPRSGPRGQLASPDAPGPGPRSEAPLPELDPLFSWTEEPEECGPASCPESAPFRLQGSSSSHRARGEVDVFSPFPAPTAGELALEQGPGSPPQPSDLSQTHPLPSEPVGSQEDGPRLRAVFDALDGDGDGFVRIEDFIQFATVYGAEQVKDLTKYLDPSGLGVISFEDFYQGITAIRNGDPDGQCYGGVASAQDEEPLACPDEFDDFVTYEANEVTDSAYMGSESTYSECETFTDEDTSTLVHPELQPEGDADSAGGSAVPSECLDAMEEPDHGALLLLPGRPHPHGQSVITVIGGEEHFEDYGEGSEAELSPETLCNGQLGCSDPAFLTPSPTKRLSSKKVARYLHQSGALTMEALEDPSPELMEGPEEDIADKVVFLERRVLELEKDTAATGEQHSRLRQENLQLVHRANALEEQLKEQELRACEMVLEETRRQKELLCKMEREKSIEIENLQTRLQQLDEENSELRSCTPCLKANIERLEEEKQKLLDEIESLTLRLSEEQENKRRMGDRLSHERHQFQRDKEATQELIEDLRKQLEHLQLLKLEAEQRRGRSSSMGLQEYHSRARESELEQEVRRLKQDNRNLKEQNEELNGQIITLSIQGAKSLFSTAFSESLAAEISSVSRDELMEAIQKQEEINFRLQDYIDRIIVAIMETNPSILEVK
- binding [1]: no binding

B5: HA-RAB11FIP4 (protein, UniProt Q86YS3 1-637)
chain: MAGGAGWSGAPAALLRSVRRLREVFEVCGRDPDGFLRVERVAALGLRFGQGEEVEKLVKYLDPNDLGRINFKDFCRGVFAMKGCEELLKDVLSVESAGTLPCAPEIPDCVEQGSEVTGPTFADGELIPREPGFFPEDEEEAMTLAPPEGPQELYTDSPMESTQSLEGSVGSPAEKDGGLGGLFLPEDKSLVHTPSMTTSDLSTHSTTSLISNEEQFEDYGEGDDVDCAPSSPCPDDETRTNVYSDLGSSVSSSAGQTPRKMRHVYNSELLDVYCSQCCKKINLLNDLEARLKNLKANSPNRKISSTAFGRQLMHSSNFSSSNGSTEDLFRDSIDSCDNDITEKVSFLEKKVTELENDSLTNGDLKSKLKQENTQLVHRVHELEEMVKDQETTAEQALEEEARRHREAYGKLEREKATEVELLNARVQQLEEENTELRTTVTRLKSQTEKLDEERQRMSDRLEDTSLRLKDEMDLYKRMMDKLRQNRLEFQKEREATQELIEDLRKELEHLQMYKLDCERPGRGRSASSGLGEFNARAREVELEHEVKRLKQENYKLRDQNDDLNGQILSLSLYEAKNLFAAQTKAQSLAAEIDTASRDELMEALKEQEEINFRLRQYMDKIILAILDHNPSILEIKH
- binding [1]: no binding
